Source: article PMC4336329 (PLoS ONE, 2015)
Out of some 310,000 compounds screened, about 14,000 (4.5%) showed an effect of 50% or more. Effects have a minus sign here. Some of the results follow.

The compounds below were run against human ether-à-go-go-related gene (hERG) potassium channel (human, UniProt Q12809) (assay: primary screen, population patch clamp on CHO cells stably expressing hERG).
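Also: peak tail current of the secondary pulse compared with the same well before compound.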

human ether-à-go-go-related gene (hERG) potassium channel, sequence (Q12809 whole entry, looked up): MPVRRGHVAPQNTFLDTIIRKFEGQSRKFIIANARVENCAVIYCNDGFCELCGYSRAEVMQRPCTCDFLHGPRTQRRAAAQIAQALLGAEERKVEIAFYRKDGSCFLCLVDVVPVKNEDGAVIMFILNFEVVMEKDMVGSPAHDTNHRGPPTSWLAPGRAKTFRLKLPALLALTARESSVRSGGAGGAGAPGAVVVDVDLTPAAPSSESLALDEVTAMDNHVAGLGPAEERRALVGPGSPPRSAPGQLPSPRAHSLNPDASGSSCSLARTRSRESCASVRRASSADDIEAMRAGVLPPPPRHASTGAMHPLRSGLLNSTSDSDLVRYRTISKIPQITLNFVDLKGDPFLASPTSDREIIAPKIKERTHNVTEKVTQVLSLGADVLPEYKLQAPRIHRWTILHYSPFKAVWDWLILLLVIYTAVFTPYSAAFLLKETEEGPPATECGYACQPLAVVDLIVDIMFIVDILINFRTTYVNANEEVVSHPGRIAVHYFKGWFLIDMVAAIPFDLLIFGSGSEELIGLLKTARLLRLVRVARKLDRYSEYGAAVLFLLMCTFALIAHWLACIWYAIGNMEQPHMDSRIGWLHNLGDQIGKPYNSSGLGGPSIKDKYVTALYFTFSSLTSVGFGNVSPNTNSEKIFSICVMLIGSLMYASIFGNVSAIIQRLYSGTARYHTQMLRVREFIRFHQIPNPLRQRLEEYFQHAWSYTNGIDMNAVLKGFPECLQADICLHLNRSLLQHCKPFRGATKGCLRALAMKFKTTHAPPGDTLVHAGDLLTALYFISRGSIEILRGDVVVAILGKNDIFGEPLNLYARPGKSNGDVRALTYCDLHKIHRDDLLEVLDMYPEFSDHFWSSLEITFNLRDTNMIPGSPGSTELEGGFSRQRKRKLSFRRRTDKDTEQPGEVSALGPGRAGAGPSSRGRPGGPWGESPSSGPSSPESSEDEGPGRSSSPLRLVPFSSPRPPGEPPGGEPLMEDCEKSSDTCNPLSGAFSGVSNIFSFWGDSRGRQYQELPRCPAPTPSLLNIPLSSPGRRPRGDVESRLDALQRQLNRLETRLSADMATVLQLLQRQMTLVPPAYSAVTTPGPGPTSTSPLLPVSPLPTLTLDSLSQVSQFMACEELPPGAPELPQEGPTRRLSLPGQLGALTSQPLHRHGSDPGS

First: CSCc1c(C(=O)N2CCCc3ccccc32)oc2ccccc12
Second: CSCc1nnc2n1-c1ccc(Cl)cc1C(c1ccccc1)=NC2
The “hERG current change (%, negative = inhibition) at 10uM” value of the first is higher: 1.15% for the first, -17% for the second.

Going from CCOCCCNC(=O)C1CCN(S(=O)(=O)c2cc(Br)cc3c2N(C(=O)CC)CC3)CC1 to CCS(=O)(=O)N1CCC(C(=O)Nc2cc([N+](=O)[O-])ccc2C)CC1, the “hERG current change (%, negative = inhibition) at 10uM” value rises from -1.16% to 2.39%.

Going from O=C1CCC(C(=O)N2CCCCCC2)CN1Cc1cccc(C(F)(F)F)c1 (centres unmarked) to Cl.O=C(CCN1CCN(CCO)CC1)N1c2ccccc2Sc2ccc(C(F)(F)F)cc21, the “hERG current change (%, negative = inhibition) at 10uM” value rises from -15% to -12%.

Going from COc1ccc(C(=O)CSc2nnc(Cn3nnc4ccccc43)n2C)cc1 to COc1ccc(NC(=O)Cn2c(=O)n(Cc3ccco3)c(=O)c3ccccc32)cc1, the “hERG current change (%, negative = inhibition) at 10uM” value rises from -13.7% to -1.15%.

First: Cc1ccc(-n2c(CCC(=O)O)ccc2-c2cccs2)cc1C
Second: COc1ccc(C(=O)/C=C/c2ccc(OC)c(O)c2)c(F)c1
The “hERG current change (%, negative = inhibition) at 10uM” value of the first is higher: 3.25% for the first, -13.5% for the second.

First: C/C=C\C=C/C(=O)Nc1cccc(C2=NOC3(C2)C[C@@H](C(N)=O)N(C(=O)/C=C/C=C\C)C3)c1 (some centres unmarked)
Second: CC(C)c1ccc(NC(=O)[C@H]2CSCN2C(=O)[C@@H]2CCC(=O)N2)cc1
The “hERG current change (%, negative = inhibition) at 10uM” value of the first is higher: 12.7% for the first, -1.7% for the second.

Compared with COc1cc(NC(=O)Cc2ccc(F)cc2)cc(OC)c1OC, COc1ccc(N2C(=O)CCC(C(=O)NCc3ccccn3)C2c2ccc(OC)c(OC)c2)cc1 (centres unmarked) is lower in “hERG current change (%, negative = inhibition) at 10uM” value: 16.2% for the first, -14.5% for the second.

First: CCn1cc(CN2CCC(n3nccc3NC(=O)CCCc3ccccc3)CC2)cn1
Second: O=C(Nc1ccc(F)cc1)C1CCN(c2nnnn2-c2ccccc2)CC1
The “hERG current change (%, negative = inhibition) at 10uM” value of the first is higher: -27.3% for the first, -46.2% for the second.

Going from O=c1nc2s/c(=C\c3ccco3)c(=O)n2nc1Cc1ccccc1 to CCN(CC)CCNC(=O)C(C(=O)c1ccccc1)n1ccccc1=O (centres unmarked), the “hERG current change (%, negative = inhibition) at 10uM” value falls from 21.3% to -6.06%.

Going from CCn1c(C)nc2cc(-c3nc4n(n3)Cc3ccccc3-4)ccc21 to CCN(CC)S(=O)(=O)c1ccc(-n2cnc3cc(C)c(C)cc32)nc1, the “hERG current change (%, negative = inhibition) at 10uM” value rises from -0.0124% to 14.4%.

Going from CC1CN(C(=O)c2cc3ccccc3cc2O)CC(C)O1 (centres unmarked) to O=C(Nc1ccc(Cl)c(S(=O)(=O)N2CCOCC2)c1)c1ccccn1, the “hERG current change (%, negative = inhibition) at 10uM” value falls from 0.614% to -0.348%.

For O=C(NC1CCCCC1)C(c1cccs1)N(C(=O)C(F)(F)F)c1ccccc1 (centres unmarked), the “hERG current change (%, negative = inhibition) at 10uM” value was 1.61%.
